# From PubChem BioAssay AID651820 (National Center for Advancing Translational Sciences (NCATS), 2012)
# Where “and” joins values, the source holds several entries; their conditions need not be identical. Equal entries are not always repeated. The campaign covered roughly 340,000 compounds. About 12,000 (3.5%) were called active. This list was built around the results that the source calls inconclusive (neither active nor inactive); the mix of calls is not that of the screen. The call rests on the fitted dose curve; in most records, active means well fitted inhibition curve with a large enough effect; inconclusive means small, poorly fitted or top-dose-only effect, or another doubt; inactive means no such curve, though single readings can be large or run the other way. A potency beside an inconclusive call is a rough fit, not a confirmed value.
# Experiment: qHTS Assay for Inhibitors of Hepatitis C Virus (HCV)
# Conditions: Huh7.5.1 HCVcc-Cre (HCVcc is cell-culture hepatitis C virus) infection, luciferase reporter, 44 h; activity change, negative = inhibition: at 41.8 µM (top of the series) unless noted
# Procedure, shortened: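 1,000 cells/well; 4 h culture; + compound; + HCVcc-Cre (~0.5 moi); 44 h; luciferase substrate, RT 15 min; read 15 sec.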
# On the % scale 0 is the no-effect control and ±100 the full control effect; potency means the concentration at half of the fitted maximal effect; tags describe the fitted curve by direction and shape.
SMILES,Potency,"activity change, negative = inhibition"
O=C(C(=NNc1ccccc1)c1ccccc1)c1ccccc1,"inconclusive: 11.2 µM [inhibitor, partial curve]",–
COc1ccc(OC(C)C(=O)N(C)Cc2nc(-c3ccccc3)no2)cc1 (stereo not drawn),"inconclusive: 14.1 µM [inhibitor, single point]",–
CCCn1c(N2CCN(C(=O)/C=C/C(=O)O)CC2)nc2ccccc21,inactive,–
CCn1c(SCC(=O)N2CCOCC2)nc2c([nH]c3ccccc32)c1=O,inactive,–
COc1ccc(C(=O)NC(C)c2ccc(-n3ccnc3)cc2)cc1S(=O)(=O)N1CCOCC1 (stereo not drawn),inactive,–
COc1ccc(C)cc1NC(=O)C(OC(=O)C1CC1)c1ccccc1 (stereo not drawn),"inconclusive: 31.6 µM [inhibitor, single point]",–
Cc1ccc(S(=O)(=O)NC(CCC(N)=O)C(=O)NCc2ccc3c(c2)OCO3)c(C)c1 (stereo not drawn),–,inconclusive: -92.8% [inhibitor]
CC(C)Cn1c(-c2cc(Br)ccc2F)nc2c1c(=O)[nH]c(=O)n2CC(C)C,"inconclusive: 31.6 µM [inhibitor, single point]",–
NC(=O)C1(N2CCCCC2)CCN(CC(=O)Nc2cc(Cl)ccc2Cl)CC1,"inactive and inconclusive: 3.55 µM [inhibitor, full curve]",–
COc1ccccc1N1CCN(S(=O)(=O)CCNC(=O)CCCc2ccccc2)CC1,"inconclusive: 31.6 µM [inhibitor, single point]",–
COc1ccc(-c2cc(C(F)F)n3ncc(C(=O)Nc4c(C)n(C)n(-c5ccccc5)c4=O)c3n2)cc1,inactive,–
Cc1noc(C)c1C(=O)OCC(=O)c1ccc[nH]1,inactive,–
CC(=O)c1ccc(Sc2nnnn2-c2ccccc2)c([N+](=O)[O-])c1,"inconclusive: 31.6 µM [inhibitor, single point]",–
CCCCNc1c(-c2ccc(-c3cccc(Cl)c3)cc2)nc2ccccn12,"inconclusive: 5.62 µM [inhibitor, partial curve]",–
CC(=O)c1ccc(N2CCN(C(=O)c3ccc(C(=O)c4ccccc4)cc3)CC2)cc1,"inconclusive: 31.6 µM [inhibitor, single point]",–
CN(C)/C=N/c1nc(-c2ccc3ccccc3c2)cs1,"inconclusive: 12.6 µM [inhibitor, partial curve]",–
CCc1ccc(NC(=O)C2CCCN2C(=O)NC2CCCCC2)cc1 (stereo not drawn),inactive,–
COC(=O)c1ccc(-c2nn(C)c(=O)c3ccccc23)cc1,"inconclusive: 31.6 µM [inhibitor, single point]",–
CNC(=S)NNC(=O)c1sccc1OCc1ccc(C)cc1,inactive,–
O=C(NC12CC3CC(CC(C3)C1)C2)c1ccc(-c2ccc(Cl)cc2)o1,"inconclusive: 12.6 µM [inhibitor, partial curve]",–
COc1ccc2cc(/C=N/NC(=O)c3c(Cl)cnn3C)c(Cl)nc2c1,"inconclusive: 0.794 µM [inhibitor, full curve, poor fit]",–
COc1ccc(CNC(=O)C(C)Cc2ccccc2)cc1O (stereo not drawn),"inconclusive: 5.62 µM [inhibitor, single point]",–
O=C(CN1C(=O)c2ccccc2S1(=O)=O)NC1CCCCCC1,inactive,–
COCCNc1nc(SCc2ccccc2)nc2sc3c(c12)CCC3,"inconclusive: 3.16 µM [inhibitor, full curve]",–
CN(C)c1ccc(C(=O)c2ccccc2)cc1,inactive,–

SMILES,Potency,"activity change, negative = inhibition"
CCc1ccccc1N(C(=O)CNC(=O)c1ccco1)C(C(=O)NC1CCCC1)c1cccnc1 (stereo not drawn),"inconclusive: 3.16 µM [inhibitor, partial curve]",–
CSc1ccc(/C=N/N2CCN(Cc3ccccc3)CC2)cc1,inactive,–
FC(F)(F)c1nnc2c(Sc3ccccc3)nc3ccccc3n12,"inconclusive: 31.6 µM [inhibitor, single point]",–
Cc1ccc(NC(=O)c2cc(S(=O)(=O)N3CCOCC3)cn2C)cc1Cl,"inconclusive: 10 µM [inhibitor, single point]",–
FC(F)(F)c1nc2ccccc2nc1N/N=C/c1c(Cl)cccc1Cl,inactive,–
CCCCN1CC(COCc2ccccc2)Oc2cccc(F)c2S1(=O)=O (stereo not drawn),"inconclusive: 12.6 µM [inhibitor, single point]",–
O=S(=O)(c1ccccc1)N1CCN=C1SCc1ccccc1Cl,"inconclusive: 31.6 µM [inhibitor, single point]",–
Cc1cccc(/C(N)=N/OC(=O)c2ccc(Br)o2)c1,inactive,–
Cc1cc(Br)c(OCC(=O)NN)c2c1CCC2,inactive,–
Cc1cc(C)n(-c2ccc(NC(=O)C3CCCCN3C(=O)c3occc3C)cc2)n1 (stereo not drawn),inactive,–
COc1cc(C(=O)NCCC(C)C)ccc1OCc1ccc(Cl)cc1Cl,"inconclusive: 0.316 µM [inhibitor, full curve]",–
Cc1ccccc1N=CC=C1OC(C)(C)C(C)(C)O1,inactive,–
CCCC(=O)C1=C(O)C(C(=O)OC)C(C)(C)CC1=NC(C)(C)C (stereo not drawn),"inconclusive: 10 µM [inhibitor, partial curve]",–
COc1cc(/C=C/C(=O)OCC(=O)NC(=O)NC(C)C)cc(OC)c1OC,"inconclusive: 7.94 µM [inhibitor, partial curve]",–
COc1cc(S(=O)(=O)N2CCCCC2)ccc1NC(=O)/C=C/c1ccccc1,"inconclusive: 8.91 µM [inhibitor, partial curve]",–
COc1ccccc1/C=N/NC(=O)c1ccc2c(c1)OCO2,inactive,–
CC(Sc1ncnc2ccccc12)C(=O)Nc1ccc2c(c1)OCO2 (stereo not drawn),"inconclusive: 12.6 µM [inhibitor, partial curve, poor fit]",–
CCN(CC)c1ccc2c(c1)C(=O)N(C)C2=O,"inconclusive: 22.4 µM [inhibitor, single point]",–
Cc1cc2nc(SCCOC(=O)Nc3cccc(Cl)c3)nc(C)c2cc1C,"inconclusive: 2.24 µM [inhibitor, full curve, poor fit]",–
Cc1nn(Cc2c(Cl)cccc2Cl)c(Cl)c1/C=N/NC(=O)c1cccnc1,"inconclusive: 11.2 µM [inhibitor, single point]",–
COc1ccc(-c2nc(NC3=NCCCCC3)sc2C)cc1,"inconclusive: 14.1 µM [inhibitor, partial curve]",–
O=C1C(Cl)=C(N2CCCCCC2)C(=O)N1c1ccccc1,inactive,–
CN(c1cccc(NC(=O)c2ccc(Cl)c(S(=O)(=O)Nc3ccccc3)c2)c1)S(C)(=O)=O,active: 10 µM,–
CN(Cc1cccs1)C(=O)COc1cccc(-n2cnnn2)c1,inactive,–
CCCc1nn2c(=O)cc(CSCC(=O)Nc3ccc(C)cc3)nc2s1,inactive,–

SMILES,Potency,"activity change, negative = inhibition"
Cc1ccc(-n2c(-c3ccccc3)c[n+]3c2CCc2ccccc2-3)c(C)c1,"inconclusive: 7.94 µM [inhibitor, partial curve]",–
CCOc1ccc2ccccc2c1C(=O)N1CCN(c2ccccc2)CC1,"inconclusive: 3.16 µM [inhibitor, full curve]",–
Cc1cc(C(=O)NNC(=S)NC(C)c2ccccc2)c2ccccc2n1 (stereo not drawn),inactive,–
Nc1cccc(-c2nc3ccc(N)cc3s2)c1,"inconclusive: 6.31 µM [inhibitor, partial curve]",–
CCOc1ccc(CCNC(=O)c2ccc(CS(=O)Cc3ccc(Cl)cc3)o2)cc1 (stereo not drawn),"inconclusive: 15.8 µM [inhibitor, partial curve]",–
CCOC(=O)c1c(C)[nH]c(C)c1C(=O)COC(=O)[C@@H](NC(=O)c1ccccc1OCC)C(C)C,"inconclusive: 22.4 µM [inhibitor, single point]",–
CCn1c(SCc2ccc(C)cc2)nnc1-c1nn(-c2ccccc2)ccc1=O,"inconclusive: 31.6 µM [inhibitor, single point]",–
CCc1nn(CC(=O)NC2CCN(Cc3ccccc3)CC2)c(=O)c2cc3cc(F)ccc3n12,"inconclusive: 2.24 µM [inhibitor, full curve]",–
CCCCNC(=O)N1CCN(c2ncccn2)CC1,inactive,–
COCCNc1nc(-c2cc(C)c(C)cc2C)cs1,"inconclusive: 10 µM [inhibitor, partial curve]",–
O=C(CSc1ccc(F)cc1)NC1CCCCC1,inactive,–
CC(=O)C1=C(O)C(=O)N(Cc2ccccc2)C1c1ccc(N(C)C)cc1 (stereo not drawn),inactive,–
CC(C)c1nc(SCC(=O)N2CCCC2)c2ccccc2n1,"inconclusive: 15.8 µM [inhibitor, single point]",–
O=c1c2cnn(-c3ccccc3)c2ncn1Cc1ccccn1,"inconclusive: 5.62 µM [inhibitor, single point]",–
CCN(CC)CCCn1c2c(c(SCC(=O)Nc3nccs3)nc1=O)CCC2,inactive,–
N#Cc1nc(COc2ccc(Br)cc2)oc1N1CCN(Cc2ccccc2)CC1,"inconclusive: 31.6 µM [inhibitor, single point]",–
FC(F)(F)c1cc(-c2cccs2)nc(-n2cc(Br)cn2)n1,active: 11.2 µM,–
COc1ccc(SC[C@H](Cc2ccccc2)N2CC[C@@H](C)CCC2=O)cc1,"inconclusive: 5.62 µM [inhibitor, single point]",–
O=C(Nc1nc2ccccc2s1)C1CCN(S(=O)(=O)c2cc([N+](=O)[O-])ccc2Cl)CC1,"inconclusive: 31.6 µM [inhibitor, single point]",–
Cc1ccc(C)c(Cn2ncc3ccccc32)c1,inactive,–
CCOC(=O)N1CCC2(CC1)C(C#N)=C(N)Oc1n[nH]c(CSc3ccc(C)cc3)c12,"inconclusive: 10 µM [inhibitor, partial curve]",–
O=C(COc1ccc(C(=O)c2ccccc2)cc1)Nc1cccnc1,active: 6.31 µM,–
Cc1cc(C)n(CC(O)COc2cccc(OCC(O)Cn3nc(C)cc3C)c2)n1 (stereo not drawn),"inconclusive: 11.2 µM [inhibitor, single point]",–
